Results taken from EPA's CvTdb concentration-time database.
Several values for one entry are separate records, joined by “and”; a condition that tells them apart may be missing. Equal entries are not always repeated. This continues a long series; more values of the same kind are listed elsewhere.

Legend:
Rat [1] = assay: concentration in liver after dosing; conditions: 6744 h; dosed: 3,3',4,4',5-pentachlorobiphenyl; 1000 mg/kg; oral; Female; Harlan Sprague Dawley
Rat [2] = assay: concentration in liver after dosing; conditions: 16 h; dosed: 3,3',4,4',5-pentachlorobiphenyl; 1000 mg/kg; oral; Female; F344
Rat [3] = assay: concentration in liver after dosing; conditions: 6744 h; dosed: 3,3',4,4',5-pentachlorobiphenyl; 1000 mg/kg; oral; Female; Harlan Sprague Dawley; remark: listed apart in the source
Rat [4] = assay: concentration in liver after dosing; conditions: 3 h; dosed: 3,3',4,4',5-pentachlorobiphenyl; 1000 mg/kg; oral; Female; F344
Rat [5] = assay: concentration in liver after dosing; conditions: 1.5 h; dosed: 3,3',4,4',5-pentachlorobiphenyl; 1000 mg/kg; oral; Female; F344
Rat [6] = assay: concentration in liver after dosing; conditions: 8 h; dosed: 3,3',4,4',5-pentachlorobiphenyl; 1000 mg/kg; oral; Female; F344
Rat [7] = assay: concentration in brain after dosing; conditions: 1 h; dosed: 76231-76-0; 3.0 mg/kg; iv; Male; F344
Rat [8] = assay: concentration in brain after dosing; conditions: 0.25 h; dosed: 76231-76-0; 3.0 mg/kg; iv; Female; F344
Rat [9] = assay: concentration in brain after dosing; conditions: 10 min; dosed: alpha/beta-Thujone mixture; 25 mg/kg; oral; Male; F344
Rat [10] = assay: concentration in brain after dosing; conditions: 1 h; dosed: 76231-76-0; 3.0 mg/kg; iv; Female; F344
Rat [11] = assay: concentration in plasma after dosing; conditions: 20 min; dosed: 76231-76-0; 3.0 mg/kg; iv; Male; F344
Rat [12] = assay: concentration in plasma after dosing; conditions: 2 min; dosed: alpha/beta-Thujone mixture; 50 mg/kg; oral; Male; F344
Rat [13] = assay: concentration in plasma after dosing; conditions: 10 min; dosed: alpha/beta-Thujone mixture; 50 mg/kg; oral; Male; F344
Rat [14] = assay: concentration in plasma after dosing; conditions: 3 h; dosed: alpha/beta-Thujone mixture; 50 mg/kg; oral; Female; F344
rat [15] = assay: concentration in blood after dosing; conditions: dosed: tert-amyl methyl ether, inhalation, duration: 6 hr, F344 (Charles River)

Clc1ccc(-c2cc(Cl)c(Cl)c(Cl)c2)cc1Cl [3,3',4,4',5-pentachlorobiphenyl]
Conditions	concentration in liver [pg/g]
Rat [1]	1040
Rat [2]	12100
Rat [3]	1130
Rat [4]	7350
Rat [5]	2560
Rat [6]	12000

CC(C)[C@]12CC(=O)[C@H](C)[C@H]1C2 [alpha-Thujone]
Conditions	concentration in brain [ng/g]	concentration in plasma [ng/mL]
Rat [7]	102	–
Rat [8]	1360	–
Rat [9]	558	–
Rat [10]	123	–
Rat [11]	–	195
Rat [12]	–	290
Rat [13]	–	727
Rat [14]	–	138

CCC(C)(C)OC [tertiary amyl methyl ether]
rat [15]
Conditions	concentration in blood
0.2263 h, 500 ppm, female	5810 ng/mL
0.2525 h, 500 ppm, female	8410 ng/mL
0.2551 h, 100 ppm, female	881 ng/mL
0.2653 h, 100 ppm, female	1800 ng/mL
0.2703 h, 100 ppm, female	1450 ng/mL
0.2738 h, 100 ppm, female	1190 ng/mL
0.3942 h, 2500 ppm, female	32600 ng/mL
0.4236 h, 2500 ppm, female	40200 ng/mL
0.4245 h, 2500 ppm, female	37400 ng/mL
0.4292 h, 2500 ppm, female	22500 ng/mL
0.4366 h, 100 ppm, female	992 ng/mL
0.4373 h, 100 ppm, female	940 ng/mL
0.5868 h, 2500 ppm, female	27600 ng/mL
0.5905 h, 500 ppm, female	8410 ng/mL
0.5956 h, 500 ppm, female	5500 ng/mL
0.5965 h, 500 ppm, female	4950 ng/mL
0.597 h, 500 ppm, female	4700 ng/mL
0.5988 h, 500 ppm, female	3650 ng/mL
0.6194 h, 2500 ppm, female	25300 ng/mL
0.7791 h, 2500 ppm, female	23800 ng/mL
0.7807 h, 2500 ppm, female	19000 ng/mL
0.8093 h, 2500 ppm, female	29000 ng/mL
0.8101 h, 2500 ppm, female	26500 ng/mL
0.9675 h, 500 ppm, female	3650 ng/mL
0.968 h, 500 ppm, female	3340 ng/mL
0.9693 h, 500 ppm, female	2600 ng/mL
0.9878 h, 100 ppm, female	829 ng/mL
0.9914 h, 100 ppm, female	569 ng/mL
1.862 h, 500 ppm, female	1480 ng/mL
1.863 h, 500 ppm, female	866 ng/mL
1.864 h, 500 ppm, female	742 ng/mL
1.886 h, 100 ppm, female	368 ng/mL
1.887 h, 100 ppm, female	271 ng/mL
1.888 h, 100 ppm, female	212 ng/mL
1.897 h, 2500 ppm, female	13900 ng/mL and 12700 ng/mL
1.898 h, 2500 ppm, female	9100 ng/mL
1.899 h, 2500 ppm, female	7630 ng/mL
3.747 h, 2500 ppm, female	3650 ng/mL
3.767 h, 100 ppm, male	211 ng/mL
3.779 h, 2500 ppm, female	5330 ng/mL
3.78 h, 2500 ppm, female	1550 ng/mL
3.88 h, 100 ppm, female	96.2 ng/mL
9.851 h, 100 ppm, female	1.74 ng/mL
17.79 h, 2500 ppm, female	410 ng/mL
17.82 h, 100 ppm, male	13.6 ng/mL
17.9 h, 500 ppm, female	61.8 ng/mL
18.02 h, 100 ppm, female	12.5 ng/mL
137 s, 2500 ppm, female	51100 ng/mL
141 s, 2500 ppm, female	47500 ng/mL
144 s, 2500 ppm, female	45000 ng/mL
145 s, 2500 ppm, female	43700 ng/mL
193 s, 500 ppm, female	16800 ng/mL
242 s, 500 ppm, female	26500 ng/mL
270 s, 2500 ppm, female	35100 ng/mL

rat [15], female, during exposure
Conditions	concentration in blood
-268 s, 500 ppm	19600 ng/mL
-6 h, 2500 ppm	10300 ng/mL and 9030 ng/mL
-5.999 h, 2500 ppm	7560 ng/mL
-5.938 h, 2500 ppm	16400 ng/mL
-5.909 h, 2500 ppm	25000 ng/mL
-5.908 h, 2500 ppm	21400 ng/mL
-5.903 h, 100 ppm	1250 ng/mL
-5.879 h, 100 ppm	1190 ng/mL
-5.878 h, 2500 ppm	28800 ng/mL
-5.859 h, 100 ppm	1400 ng/mL
-5.83 h, 100 ppm	982 ng/mL
-5.821 h, 500 ppm	2970 ng/mL
-5.804 h, 100 ppm	754 ng/mL
-5.79 h, 500 ppm	2600 ng/mL
-5.672 h, 500 ppm	5870 ng/mL
-5.548 h, 500 ppm	4760 ng/mL
-5.527 h, 2500 ppm	26500 ng/mL
-5.521 h, 500 ppm	7360 ng/mL
-5.501 h, 2500 ppm	44800 ng/mL
-5.5 h, 2500 ppm	41200 ng/mL
-5.498 h, 100 ppm	1760 ng/mL
-5.498 h, 2500 ppm	33800 ng/mL and 32600 ng/mL
-5.497 h, 100 ppm	1700 ng/mL
-5.494 h, 500 ppm	9520 ng/mL
-5.493 h, 2500 ppm	17700 ng/mL
-5.152 h, 2500 ppm	48700 ng/mL and 47300 ng/mL
-5.146 h, 100 ppm	2800 ng/mL
-5.136 h, 100 ppm	2020 ng/mL
-5.133 h, 100 ppm	1860 ng/mL
-5.124 h, 2500 ppm	59700 ng/mL and 58600 ng/mL
-5.123 h, 2500 ppm	55900 ng/mL
-4.918 h, 500 ppm	13900 ng/mL
-4.073 h, 100 ppm	2900 ng/mL
-4.069 h, 100 ppm	2650 ng/mL
-4.049 h, 100 ppm	2840 ng/mL
-4.042 h, 2500 ppm	61200 ng/mL
-4.041 h, 2500 ppm	59500 ng/mL
-4.039 h, 2500 ppm	53600 ng/mL
-4.016 h, 2500 ppm	80900 ng/mL
-4.014 h, 2500 ppm	73300 ng/mL
-4.012 h, 2500 ppm	68500 ng/mL
-3.876 h, 500 ppm	15000 ng/mL
-3.874 h, 500 ppm	13900 ng/mL
-3.848 h, 500 ppm	16400 ng/mL
-2.172 h, 2500 ppm	91800 ng/mL
-2.171 h, 2500 ppm	88100 ng/mL
-2.17 h, 2500 ppm	83200 ng/mL
-2.169 h, 2500 ppm	79400 ng/mL
-2.086 h, 100 ppm	3100 ng/mL
-2.066 h, 100 ppm	1650 ng/mL
-1.92 h, 500 ppm	21100 ng/mL
-1.893 h, 500 ppm	22900 ng/mL
-0.1379 h, 500 ppm	20800 ng/mL
-0.1362 h, 2500 ppm	97900 ng/mL
-0.1343 h, 2500 ppm	91900 ng/mL
-0.1296 h, 500 ppm	16100 ng/mL
-0.1295 h, 2500 ppm	76900 ng/mL
-0.1268 h, 2500 ppm	68300 ng/mL
-0.1264 h, 2500 ppm	67100 ng/mL
-0.1231 h, 500 ppm	12400 ng/mL
-0.12 h, 100 ppm	3220 ng/mL
-0.1177 h, 100 ppm	3050 ng/mL
-0.1027 h, 100 ppm	3620 ng/mL
